Data from the BET-seq Pho4 binding data (Le et al. 2018).
The list shows a part of the results. Values were computed here from the reads of four pooled replicates and scatter widely.

The sequences below were run against T1, Pho4 (S. cerevisiae) (UniProt P07270) (assay: relative binding free energy (BET-seq); higher = weaker binding). Details: reference: library average.
T1 sequence: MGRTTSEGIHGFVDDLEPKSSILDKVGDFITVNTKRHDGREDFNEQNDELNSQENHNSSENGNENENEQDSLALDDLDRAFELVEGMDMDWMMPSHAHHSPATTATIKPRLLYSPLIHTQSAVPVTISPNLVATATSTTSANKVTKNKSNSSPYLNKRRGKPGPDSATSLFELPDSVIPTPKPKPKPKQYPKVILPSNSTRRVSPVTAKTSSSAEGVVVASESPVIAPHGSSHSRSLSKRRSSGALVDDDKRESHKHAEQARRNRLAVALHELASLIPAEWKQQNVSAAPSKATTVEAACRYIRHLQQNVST

Sequence	relative binding free energy [kcal/mol]
ATAATCACGTGGTCTG	0.14
TAGGACACGTGCTATT	0.05
CTTTGCACGTGTGTCG	-0.01
TGCATCACGTGGCGTA	0.16
GACGGCACGTGGGGGG	-0.14
AAAGGCACGTGGGGTC	-0.21
GGGTTCACGTGTTTCA	0.18
GGGCGCACGTGGGTGT	-0.01
AGGTACACGTGCGAGG	-0.02
GGTGTCACGTGGATGC	0.08
AGTAACACGTGGGTTG	-0.07
TTGGACACGTGGCGAG	-0.04
TCTTACACGTGGTGTT	0.12
CGGTGCACGTGGTCAT	-0.05
TAAGACACGTGAGGTA	0.32
ATAGGCACGTGACAGG	-0.06
TGGTGCACGTGGCGCC	-0.05
TCATTCACGTGGAGGT	0.24
TTTCTCACGTGGATGG	0.18
GTTGCCACGTGAGGTG	0.02
GTTTCCACGTGACGTG	0.33
AAATACACGTGGTTGG	-0.15
TGACACACGTGTTAGG	0.1
AGTTTCACGTGGTTAT	0.24
AGTGTCACGTGTCGCG	0.09

Sequence	relative binding free energy [kcal/mol]
TTTTGCACGTGAGCTT	0.08
AGTCTCACGTGTATGG	0.16
CGGGACACGTGGGCTG	-0.26
TAAATCACGTGTGGTT	0.2
ATTTGCACGTGTTGTC	0.19
AGTCTCACGTGTGTGG	0.25
TAGATCACGTGGTTAG	0.19
AGTGTCACGTGTTTAA	0.03
CTTGTCACGTGCGCGT	-0.05
GAGTGCACGTGGGTGG	-0.05
ATATCCACGTGCGGGG	0.03
GTGGACACGTGGGCTA	-0.14
TGTCGCACGTGGTCAG	-0.21
CAATGCACGTGTGTAT	-0.01
TTGACCACGTGATGGG	0.14
TATAACACGTGTTGAT	-0.05
ATGTGCACGTGATGGG	0.09
GTGTACACGTGGCGCG	-0.04
GTATTCACGTGGCCGG	0.2
GTTGACACGTGTATAA	0.07
GTTAGCACGTGGCTGG	-0.12
TATGGCACGTGGTGTC	-0.24
CAGTTCACGTGATGTT	0.39
TATCGCACGTGGTTGT	-0.12
TATTACACGTGTAGGT	0.18

Sequence	relative binding free energy [kcal/mol]
TTAGGCACGTGGTACG	-0.26
TTATGCACGTGTGTTA	0.04
TGGTGCACGTGTTTAA	-0.11
TTTGACACGTGCGTGC	-0.07
GTAGTCACGTGGGTGG	-0.02
CTTTGCACGTGGGTTG	-0.15
TTATGCACGTGCGGGT	0.01
GCTCTCACGTGGGTGG	0.15
GGGTCCACGTGGCAGG	-0.11
ATTCACACGTGCGGGG	0.02
AGCAACACGTGGTGGG	-0.12
TTGCTCACGTGGCAGG	0.07
TGTCGCACGTGCGTGA	-0.16
GGAGCCACGTGGGGTG	-0.33
GGTGTCACGTGGCCGG	0.04
CTGTTCACGTGTGTCG	0.27
TGAAGCACGTGTTTAG	-0.08
AATGGCACGTGATTTG	0.15
GTATTCACGTGGATGT	0.27
ATGTACACGTGTGTCA	-0.03
GTTATCACGTGTATAA	0.11
TATTGCACGTGGGAGC	-0.04
GGGCACACGTGGAGGC	0.16
AAAGTCACGTGGGCTG	-0.04
ATAGACACGTGGTGTA	-0.16

Sequence	relative binding free energy [kcal/mol]
TCATGCACGTGGGTAG	-0.21
TGTCGCACGTGGGAGG	-0.12
AATTGCACGTGTGTTA	0.11
TTACTCACGTGGTCTG	0.1
GTTTACACGTGATAAT	0.19
GTTTACACGTGGATTA	0.04
TTTATCACGTGGGAGA	0.03
CGTAGCACGTGGGGTT	-0.11
TAGATCACGTGTTTTG	0.2
GTGATCACGTGGGGGT	0.02
TGGGTCACGTGCAAGG	0.13
TTTCTCACGTGAGTTG	0.35
TTAGGCACGTGGGGTC	-0.2
ATTGACACGTGCTTGG	-0.1
TCATACACGTGGTATG	-0.03
TCCGTCACGTGTGTGG	0.03
TTATGCACGTGCGTAG	-0.1
CAAGTCACGTGGGTAA	0.11
ATTTTCACGTGGAGTC	0.23
ACTGTCACGTGTGGTG	0.08
GGTGTCACGTGATTCG	0.23
GTATTCACGTGAGTTG	0.44
GCGGACACGTGTTGTA	0.11
GGTAGCACGTGGGTCG	-0.18
TCGTACACGTGGTTTT	0.04

Sequence	relative binding free energy [kcal/mol]
AATGACACGTGGGTTA	-0.12
GAGGGCACGTGTTGTC	-0.05
GAGCACACGTGGTGGA	0.13
CGATACACGTGGTTGT	-0.04
TAGTGCACGTGTATGA	0.07
GGTTACACGTGTGTAT	0.22
TGCGACACGTGGTTGA	0.09
AGTGGCACGTGGTAGT	-0.13
CGGTACACGTGGTCGG	-0.15
GGTGGCACGTGGCAGG	-0.18
TGTGACACGTGAAAGT	0.35
AGGTTCACGTGGCAAT	0.36
CGTAACACGTGGTTTT	-0.04
GACTACACGTGGGTGT	-0.03
TGGGTCACGTGTTCGA	0.12
TGGTACACGTGCGATA	0.14
GGCGGCACGTGTTTGT	-0.01
AAGGTCACGTGGGCGG	-0.03
TTGTGCACGTGCAGGG	-0.01
TGACTCACGTGGCGTG	0.13
GCTAACACGTGGTGGG	-0.15
GTTGTCACGTGATCAG	-0.03
TAAGGCACGTGTGCGG	-0.12
TGAAGCACGTGGGTAG	-0.21
ATGCGCACGTGTTAGT	-0.1

Sequence	relative binding free energy [kcal/mol]
GTCTGCACGTGGTGAG	-0.03
GGTAGCACGTGGGCAG	-0.3
GTAGGCACGTGTTGGT	0.02
GCGTACACGTGTGGGG	0.01
GGTTCCACGTGGAGGG	0.01
ATTTACACGTGTCTGG	0.03
TCCGTCACGTGGGTGA	-0.02
AGTAACACGTGTTCGT	-0.07
TGAGGCACGTGTACTT	-0.01
TGGTTCACGTGTATAA	0.25
AGTCGCACGTGTTTGA	-0.06
TTGTTCACGTGGGCAT	0.21
TAAGTCACGTGCTAAG	0.22
TTCAACACGTGTATGT	0.03
GGTAGCACGTGTGTGG	-0.02
TTGTCCACGTGGGGCG	-0.13
CTGTTCACGTGGCGTG	0.18
CGGGGCACGTGGGCTA	-0.19
GGCGTCACGTGTCGTT	0.15
GGTGGCACGTGAATAT	0.28
TAGTGCACGTGGATTA	0.02
